# Data: PubChem BioAssay AID757 (NMMLSC, 2007)
# In all, about 190,000 compounds went through this assay and about 520 (0.27%) were called active. The inconclusive results got no clear call from the source; some entries with a clear call stand among them for comparison.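 How the source made its calls: active means GTP binding activity at least 20 points away from the 100% control level, either lower or higher; inconclusive means compound flagged as likely green fluorescent, judged across all proteins; inactive means the rest.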
# Biological target: Ras-related C3 botulinum toxin substrate 1 (Homo sapiens) (UniProt P63000)
# Test: wildtype Rac1 GTP binding modulators, primary screen, biochemical, GST-Rac1 beads, flow cytometry, multiplex (AID 757)
# Details: fluorescent GTP binding, at 10 µM, actives lie on both sides, 0 = cold GTP competed, 100 = untreated
row,SMILES,GTP binding activity (% of control)
1,CCOc1cc(C(=O)NC)cc(Br)c1OCc1ccccc1,inconclusive: 93%
2,COc1ccc(-n2c(=S)[nH]c3c(oc4ccccc43)c2=O)cc1,inactive: 111%
3,CCOC(=O)N1CCN(C(=O)c2ccc(CS(=O)(=O)c3ccccc3OC)o2)CC1,inconclusive: 96%
4,Cc1cccn2c(=O)c(C=NCCO)c(Nc3ccc(Cl)cc3)nc12,inconclusive: 92%
5,Oc1ccc2ccccc2c1/C=N/Nc1nnc(-c2ncc[nH]2)c2ccccc12,inconclusive: 74%
6,C#CC1CN(Cc2ccccc2)CC(C#C)N1C (stereo not given),inconclusive: 103%
7,C=CCn1c(C)cc(C(=O)Cn2nc(C(=O)O)c3ccccc3c2=O)c1C,inconclusive: 97%
8,COc1ccccc1NS(=O)(=O)c1ccc2c(c1)n(C)c(=O)n2C,inactive: 104%
9,COc1ccc(NC(=O)c2sc(Cl)nc2-c2ccccc2)cc1,inactive: 106%
10,CCCCNC(=S)Nc1ccc2[nH]c(=O)[nH]c2c1,inactive: 95%
11,CCOC(=O)CN(C(=O)CSc1nnc2c(n1)[nH]c1ccc(OC)cc12)c1ccc(F)cc1,inconclusive: 76%
12,O=C(CSc1ccc2nnc(-c3cccs3)n2n1)N1CCCC1,active: 73%
13,CCc1cccc(C)c1NC(=O)CO/N=C(\N)CC(=O)NC1CCCCC1,inconclusive: 105%
14,ClCc1nnc(-c2cc3c(s2)CCCC3)o1,inactive: 98%
15,CC(=O)NC1C(=O)N(CC(C)C)c2ccccc21 (stereo not given),inconclusive: 106%
16,CCOc1ccc(C(=O)NC2CCN(C(=S)NCc3ccco3)CC2)cc1,inconclusive: 90%
17,COC(=O)C1=C(C)OC(N)=C(C#N)C1C1CCCCC1 (stereo not given),inactive: 102%
18,C(=N\Nc1nc2ccccc2s1)/c1ccco1,inconclusive: 103%
19,COc1ccc([C@@H]2Sc3cc(OC)ccc3N(CCN(C(C)C)C(C)C)C(=O)[C@H]2OC(C)=O)cc1,inconclusive: 107%
20,CC(C)CC1=NN(C(=O)c2ccncc2)C(O)(C(F)(F)F)C1 (stereo not given),inactive: 103%

row,SMILES,GTP binding activity (% of control)
1,CC(=O)NC(CC(=O)Nc1ccc(S(=O)(=O)N2CCCC2)cc1)c1ccccc1 (stereo not given),inconclusive: 112%
2,CCc1nnc(NC(=O)CSc2nnc3c4ccccc4n(C)c3n2)s1,inconclusive: 86%
3,Cc1cc(C(=O)OCC(=O)Nc2cc(S(=O)(=O)N(C)C)ccc2Cl)c2ccccc2n1,inconclusive: 100%
4,O=C(Nc1ccc(S(=O)(=O)NC2=NCCCCC2)cc1)c1ccc(=O)[nH]c1,inactive: 102%
5,COc1ccc(CN(CC2CCC(C(=O)O)CC2)C(=S)Nc2cccc(C)c2)cc1 (stereo not given),inactive: 94%
6,CCN(CC)S(=O)(=O)c1ccc2c(c1)c(=O)c(C(=O)NCc1ccco1)cn2C,inactive: 95%
7,COc1ccc(NC(=O)Cc2nnc(N)s2)cc1,inconclusive: 89%
8,Cc1cc(C)nc(Nc2nc(=O)c3ccccc3s2)n1,active: 165% [activator]
9,Cc1nn(CC(O)COc2ccc3c(c2)CCC3)c(C)c1Br (stereo not given),inconclusive: 105%
10,CN(C)CC(C)(C)CNS(=O)(=O)c1ccc(OC(F)(F)F)cc1,inactive: 96%
11,CC(C)C(=O)NC(C)C(c1cccs1)N1CCN(C)CC1 (stereo not given),inconclusive: 103%
12,CN1CCN(S(=O)(=O)c2cccc(C(=O)Nc3sc4c(c3C(N)=O)CCCC4)c2)CC1,active: 72%
13,CCOc1cc(S(=O)(=O)N2CCN(Cc3ccccc3)CC2)ccc1Br,inconclusive: 90%
14,CCOC(=O)Nc1ccc(Cc2ccncc2)cc1,inactive: 94%
15,C(=N/N1CCN(c2ccccc2)CC1)/c1ccncc1,inactive: 97%
16,CN(c1ccc([N+](=O)[O-])cc1C(N)=O)C1CCCCC1,inactive: 98%
17,Cc1ccc(-n2c(SCc3cc(=O)n4ccsc4n3)nnc2-c2cccnc2)c(C)c1,active: 163% [activator]
18,COc1ccc(CCC(C)NCC2CCCCC2)cc1 (stereo not given),inconclusive: 104%
19,CCOC(=O)c1c(C)nc2c(c1-c1ccccc1)C(=O)CCC2,inconclusive: 96%
20,CCOc1nc(-c2ccncc2)nc2ccccc12,inconclusive: 107%

row,SMILES,GTP binding activity (% of control)
1,O=C(O)c1ccccc1OCc1ccccc1Br,active: 142% [activator]
2,CO/N=C(\C(=O)O)c1csc(NN=C(C)C)n1,inactive: 97%
3,COc1ccc(Cl)cc1NC(=O)C/C(C)=N/NC(=O)Cc1ccccc1,inconclusive: 100%
4,CC1Cc2ccccc2N1C(=S)NC(=O)C1(C)CC1(Cl)Cl (stereo not given),inconclusive: 101%
5,C/C(=N\NC(=O)c1cccc(N/N=C(\C)c2cc(O)ccc2O)c1)c1cc(O)ccc1O,inconclusive: 77%
6,COC(=O)C(F)(F)Sc1c(C)[nH]c2ccccc12,inconclusive: 107%
7,CSCC[C@H](NC(=O)NCc1ccc(F)cc1)C(=O)O,inconclusive: 105%
8,CC1=Nc2ccccc2/C1=C\c1sc(Nc2ccc(C)cc2)nc1O,inconclusive: 92%
9,CN(Cc1ccc(-n2cccn2)cc1)Cc1cn(C)nc1-c1ccccc1F,inconclusive: 92%
10,CCNCc1cc(OCC)c(OCC(=O)NCCc2ccccc2)cc1Cl,inconclusive: 109%
11,CCC(=O)Nc1cc(C(=O)OCC(=O)c2ccc(Cl)cc2Cl)ccc1C,inconclusive: 104%
12,O=C(NCC1CCN(c2ccc(S(=O)(=O)N3CCOCC3)cc2)CC1)c1cccc(Cl)c1,inconclusive: 101%
13,COCCNC(=O)Cn1cc(C(=S)N2CCOCC2)c2ccccc21,inactive: 100%
14,C=CCc1ccccc1OCC(O)CN1CCN(C(=O)OCC)CC1 (stereo not given),inconclusive: 118%
15,COc1ccc(-n2c(C)cc(/C=C3\SC(=S)N(Cc4ccco4)C3=O)c2C)cc1,inconclusive: 130%
16,CC(=O)N1CCc2cc(Br)cc(S(=O)(=O)N3CCN(C(=O)c4ccco4)CC3)c21,inconclusive: 107%
17,C/C=C/c1cc(CN2CCN(c3ccc(OC)cc3)CC2)c(O)c(OC)c1,inactive: 98%
18,CC(=O)c1sc(NC(=O)CCCOc2ccc(Cl)cc2)nc1C,inactive: 109%
19,CCC(C)/C(C)=N/NC(=O)CNS(=O)(=O)c1ccc([N+](=O)[O-])cc1 (stereo not given),inactive: 102%
20,NC(=O)c1c(NC(=O)c2cnccn2)sc2c1CCCC2,active: 70%
